# In the supplement of paper PMC11417369:
# The list shows a part of the results.
# System: PfSIP2 AP2 domain 1 (GST-tagged)
# Experiment: gcPBM binding intensity (ln(normalized median fluorescence intensity)); higher = stronger DNA binding
# How it was run: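 The highest Masliner-normalised natural-log median intensity across replicate spots of either probe orientation is reported as binding intensity. GST-tagged P. falciparum DNA-binding domains expressed in E. coli were applied for 1 h to an Agilent 4 × 180k array of primer-extended double-stranded 36-bp intergenic genomic probes plus negative controls, and bound protein was detected with Alexa488 anti-GST antibody and scanned at 488 nm.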
row,Sequence,gcPBM binding intensity (ln)
1,ATATATATATCACGCACACACGAATTTTAAATATAT [CACACA_site5691],8.34
2,TTATTTTTACAATTTTAATAATAATACTAAAACAAA [XGTACX_negctrl_site538],6.93
3,TCTTTTGCCCAAAAAGGTACACACCACAATTTAAAT [XGTACX_site1482],7.4
4,TATTGTATGGTAGGATATGATGTTATTTGTTATAAT [CACACA_negctrl_site202],6.92
5,AATTATAGCTGTATCTGTACGCATTTATTTATAGAC [XGTACX_site5959],7.16
6,GAAAGGGCAGGAACTATTAATACACTGATCGATAAG [CACACA_negctrl_site1458],6.87
7,TTAAATAATATTAGCCGTACAATTTAAAGATAATAA [XGTACX_site8503],6.89
8,TTTAATACTTTATATGCATGCAGAGAAAAATGCTTG [TGCATGCA_site286],6.96
9,TTTGAAATATATTTAGTGCATATATATTGATTATAA [GTGCAC_site9604],9.71
10,ATACATATAGGATGCACACATAATTCAAATACAATA [CACACA_site651],7.73
11,ATGAATATAATGAAGTGTACATAAAAATAATAAATA [XGTACX_site2481],7.11
12,CAATTTTGCCCTTCCTGTACATATATTGAAAAATAT [XGTACX_site6388],7.27
13,ATCTAGTACATACATACACACAACAATGTTATGAGA [CACACA_site3989],7.16
14,TAAATATTTATAAACACACAAATATTTATATTTATA [CACACA_site6166],6.91
15,AAATAGAGAAATACAAGTACATATCAAACCAATCTA [XGTACX_site2756],6.73
16,TTTATTTATTAATACACACACACACGCCCACAAAAT [CACACA_site6253],7.57
17,AGGGACATATATATCACACACAAAAATTAGTCCCTT [CACACA_site2778],6.87
18,TAAAAATATAGGTATACACACATATAAATATAAATA [CACACA_site7785],6.89
19,CTTATACATAAATTTTGTACACACAAAAAAAAAAAA [XGTACX_site2665],7.43
20,GATTTTAAAATAATTACACACTTGATTATGTCCAAA [CACACA_site3491],6.9
21,ATAAATATAAATATATGTACATATATATATATATAT [XGTACX_site7433],9
22,AAGACACAAAAACACACACACATACATACATACATA [CACACA_site454],7.19

row,Sequence,gcPBM binding intensity (ln)
1,TATGTTGATGATGATAGTACATATGAGTTCAAAAAA [XGTACX_site7712],7.06
2,TGTTTTGTTGTGTATTGTACTAATATAAATATATAA [XGTACX_site1852],7.41
3,TAAAAAAACGCACTCGTACACACATATTTTCTTTCT [CACACA_site3090],8.53
4,TTTTATGATTGACACACACACAAAAAAAAAAAAAAA [CACACA_site7860],7.05
5,TATATTTGGAAAACATGTACATATAACAATATGTAA [XGTACX_site324],7.09
6,AATAAAAAAGGAAACAAATTAATATATATATATATA [CACACA_negctrl_site467],9.1
7,AAAAAAAGAAATAATAAAAAATATATATATATATAT [GTGCAC_negctrl_site702],9.47
8,CGTACATAATTTTAATCACACACAAACAAACACATA [CACACA_site7947],7.24
9,ACAAAATGTAAATAAACACACATATTTATATTTATA [CACACA_site6719],6.93
10,TTGGTGGATAAATTTACACACAATAATTTTCGTTCA [CACACA_site467],6.8
11,AATAAAATATTATGTGCATGCTGTTTTATTTATTAA [TGCATGCA_site102],6.97
12,AATTCACCAAAAAAAGTGCATATTCAATATATATTA,8.66
13,TAAAACAAAACAAAAATAGGATTATATTCCTTTTTT [CACACA_negctrl_site1003],6.46
14,ATAATTTCAATATTTAATATCATATATATATATTTT [GTGCAC_negctrl_site713],6.94
15,ATATATATATATATATGTACATATGTGTATATAACT [XGTACX_site495],9.15
16,AAATAAAAAAATACCCAACACCATGCCAAATGTGAA [CACACA_negctrl_site411],6.73
17,TAAAATTCGAAAAATTGTACTATTTATATATCTGTA [XGTACX_site6478],6.76
18,TAGTTAGGCCCTACATGTACATAATATATATTACTT [XGTACX_site1137],7.22
19,ATCAACATTACATTTAGTACACATATATTTCTATGT [XGTACX_site4436],7.08
20,TATATAAGTATAAAATGTACATAAAATTTTATGTTA [XGTACX_site2613],6.92
21,CTAATTAATATTTGTACACACATATTTAACCTACTA [CACACA_site3191],6.89
22,TAAAAATTTACATGTTGTACATATAATTATATAATC [XGTACX_site4577],6.91

row,Sequence,gcPBM binding intensity (ln)
1,AGGCTGCCATATTATACACACATTTTTAAAAAAATT [CACACA_site3843],6.82
2,AAATATTACCATGTGAAAATTTTACTGCAACATGAA [TGCATGCA_negctrl_site609],6.97
3,ATATTAAACAGACACACACACATATATTTATTTATA [CACACA_site7564],6.98
4,TATAGCATATCTCACACACACATAATGAATATTATA [CACACA_site5877],7.03
5,AAAATGAACTCACGAGCACACACACCCATATATATA [CACACA_site8247],7.68
6,TGTATTATATAAAATTGTACATGCGAATTGTATAAC [XGTACX_site902],7.22
7,TATAGCTATGTATTCACACATAATATAAACTTTAAT [CACACA_site5889],6.84
8,AAAGGATGTAATATAAACATATATATGTATATATAT [TGCATGCA_negctrl_site347],7.42
9,ATAAAATGAAATATATATGTGTATGCTTAACTTGTT [CACACA_negctrl_site431],6.73
10,TAATTTTTTTTAATAACACACATATATATATATATA [CACACA_site813],9.64
11,ATTGTTTTATATAGAACACACATAAAAATATATATG [CACACA_site1193],7.01
12,TAATATTCCTTTTTAACACACATATGAACAAATAAA [CACACA_site153],7.11
13,CACAAAAATGTAATCACACATATATATATATATATA [CACACA_site5818],9.46
14,TATGTGATAACACGCACACAAATGTATTTAATTTAT [CACACA_site5435],6.85
15,AAAAAATGAAAATATTCCAAAATAGAGGGAAATGTA [GTGCAC_negctrl_site572],6.96
16,ATTCTAATAATATATACACACACATATATATTTATA [CACACA_site8629],7.23
17,TTATATTTATATATTTGTACGTATGTATATAATTCA [XGTACX_site2993],7.17
18,CTTTTTTAAAATATTTAACACACAATTTTAATGCAT [CACACA_site9303],7.07
19,AAAATTAGGAGACATGCATGTAACGATAAATATAAC [TGCATGCA_site148],7.41
20,GTTACATACATATACACACACATATATATATATATA [CACACA_site901],9.32
21,TAAATAATTCTTTTAGTACACACGAATAAGCAGATA [CACACA_site305],7.14
22,TAATTTTTATTCAAGAGTACACAAAAGATAACTAAA [XGTACX_site4060],7.27

row,Sequence,gcPBM binding intensity (ln)
1,TAAAAAAAATCATTCACACATATATGAAAAAAAAAA [CACACA_site5546],6.72
2,TAGATACCTATAGAAACATGCAATTGAATATATTTC [TGCATGCA_site402],6.67
3,TTCTTACACGTTTGCACACTAAAATATATATATATA [CACACA_site434],8.99
4,CTTGAAAGATTTTATTGTACTCATAAGATACATTTC [XGTACX_site3178],7.01
5,TCATACAATATTAAATGTACATATATATATATATAT [XGTACX_site8828],8.99
6,ATATTAAAGCCTTTTTGTACATATAAATAAACATAG [XGTACX_site4667],7.16
7,TATATATTATATATATGTACATAATTCCATGTTTAG [XGTACX_site3943],7.16
8,AACTCTTAAAAATAAACATGCAAATATTTACCTTCT [TGCATGCA_site986],6.95
9,ATTTTTTTTTTTTTTTTTCATTTTTTTTTTTTTTTT [CACACA_negctrl_site1204],7.39
10,TTTTTTTTCTTTTTTTTTTTTTCAAAAGCTTATAAT [CACACA_negctrl_site1526],6.77
11,TGTATAATCATATATACACACACATATATATATATA [CACACA_site8674],9.59
12,TTATATAAAAAAAAATGTACATATAATTGGTAAATT [XGTACX_site5180],6.99
13,GTGTATTTGGTGCGCACACACATGCAAAAAGAAATA [CACACA_site4768],11.6
14,TTGAAAATAATATGAAGTACATTATTTTTTTTTAAT [XGTACX_site4499],6.97
15,AAAAATATTTAAAATACACACATATATATAATATAT [CACACA_site2006],6.96
16,AAAACTTTCCATGTTTGTACATAAAATATAATAATT [XGTACX_site2716],7.01
17,AAAATGAACAAACACACACACATATATATATATATA [CACACA_site2403],9.27
18,AAAAATGTATGTATGGTGCAGTATTCATATCATTTT [GTGCAC_site9458],10.2
19,TTATTGTGTAAGATGATTTTCTTCGTCACTTTGAAA [CACACA_negctrl_site1814],6.66
20,TCTTGAAAAAGAATCAATCGGTCGACAAAAAAAAAA [CACACA_negctrl_site1099],6.88
21,ATATTCTTGTTTAATACACACTGTAGTATTATAGAT [CACACA_site6341],7.04
22,TTTTTTAATATTTATTAATTAAACTTTGTTTTTGTT [XGTACX_negctrl_site454],6.66
